The results in this text go back to paper PMC7083877.

The assay deals with T1, Flag-SBDS (Flag-tagged pEnter-SBDS) (human) (UniProt Q9Y3A5).
T1 sequence: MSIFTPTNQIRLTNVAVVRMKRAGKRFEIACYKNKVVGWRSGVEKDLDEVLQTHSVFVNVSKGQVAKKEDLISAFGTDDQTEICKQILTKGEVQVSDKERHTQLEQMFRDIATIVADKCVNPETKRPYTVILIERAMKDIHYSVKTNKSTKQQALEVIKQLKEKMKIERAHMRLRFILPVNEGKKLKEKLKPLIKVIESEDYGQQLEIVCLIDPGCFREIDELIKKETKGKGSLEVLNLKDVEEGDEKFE
Description: co-IP; H1299 cells transfected with the indicated plasmids; IP with anti-p53 (Fig. 6a) or anti-Flag (Fig. 6b), IB.

Results are given in words; binding and its absence hold for the method and conditions named. In cells and extracts the contact can be indirect. Some entries that bind do so weakly or less than the wild type. Tags and fused reporters may be left off the sequences shown.

“p53 (exogenous, from the p53 plasmid) (from UniProt P04637 1-393)”: the binding result is “binds”.
